Results are given in words; binding and its absence hold for the method and conditions named. Binding seen in cells or lysates may run through a third protein. Some results given as binding are weak or reduced against the parent protein; the word gives no strength.

Protein sequences, listed by entry. Tags and fused reporters are not part of them. Lines headed by an entry give the natural chain unless they say otherwise; changes in a name come on top. Residues count along the entry.
UniProt P05556: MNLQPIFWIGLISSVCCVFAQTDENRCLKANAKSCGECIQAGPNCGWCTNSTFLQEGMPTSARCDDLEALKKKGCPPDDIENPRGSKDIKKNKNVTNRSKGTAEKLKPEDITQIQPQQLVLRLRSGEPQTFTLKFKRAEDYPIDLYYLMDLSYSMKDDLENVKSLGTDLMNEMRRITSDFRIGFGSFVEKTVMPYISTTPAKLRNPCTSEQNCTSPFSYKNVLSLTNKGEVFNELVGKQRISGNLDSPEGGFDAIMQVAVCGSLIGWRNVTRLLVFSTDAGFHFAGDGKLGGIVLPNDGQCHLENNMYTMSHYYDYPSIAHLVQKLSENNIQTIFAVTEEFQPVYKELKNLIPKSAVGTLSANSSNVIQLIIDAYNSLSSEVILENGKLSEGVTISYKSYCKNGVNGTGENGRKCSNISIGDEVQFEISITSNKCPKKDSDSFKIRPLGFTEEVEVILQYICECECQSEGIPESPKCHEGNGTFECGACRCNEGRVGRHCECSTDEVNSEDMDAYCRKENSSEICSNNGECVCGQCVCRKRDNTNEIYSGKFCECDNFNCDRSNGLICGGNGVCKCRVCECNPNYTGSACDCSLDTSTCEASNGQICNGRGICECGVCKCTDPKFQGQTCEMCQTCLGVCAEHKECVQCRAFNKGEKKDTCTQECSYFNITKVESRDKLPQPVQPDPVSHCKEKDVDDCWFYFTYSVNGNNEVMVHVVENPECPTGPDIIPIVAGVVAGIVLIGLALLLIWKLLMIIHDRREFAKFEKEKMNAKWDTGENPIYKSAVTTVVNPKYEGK
combined EGF4-βTD domains of β1-integrin (residues 572–728): residues 572-728 of P05556
EGF4 domain of β1-integrin (residues 572–610): residues 572-610 of P05556

Assay [1] has as its target tissue factor (TF), endogenous, cellular (human (endogenous in MDA-MB-231)) (UniProt P13726). Kind of assay: proximity ligation; MDA-MB-231 cells (10^4) transfected to express the constructs, 48 h; Duolink PLA with mouse anti-HA-tag (C29F4) paired with rabbit polyclonal anti-β1-integrin or anti-TF antibody, overnight at 4 °C.
Assay [2] addresses combined EGF4-βTD domains of β1-integrin (residues 572–728) (human) (UniProt P05556). The experiment in a line: co-IP; MDA-MB-231 cells (1.5 × 10^5) transfected 48 h, lysed in PhosphoSafe buffer; constructs captured with anti-FLAG-tag antibody (4 µg) at 4 °C overnight and protein A-magnetic beads, five washes with PBST; blot with anti-β1-integrin or anti-TF (HTF-1) antibody.
Assay [3] addresses β1-integrin (endogenous, cellular) (human (endogenous in MDA-MB-231 and HDBEC)) (UniProt P05556). The experiment in a line: proximity ligation; MDA-MB-231 cells (10^4) transfected to express the constructs, 48 h; Duolink PLA with mouse anti-HA-tag (C29F4) paired with rabbit polyclonal anti-β1-integrin or anti-TF antibody, overnight at 4 °C.
Assay [4] shares this target. Kind of assay: proximity ligation; HDBEC (5 × 10^4) transfected to express the constructs, 48 h; Duolink PLA with mouse anti-HA-tag (C29F4) and rabbit polyclonal anti-β1-integrin antibodies, overnight at 4 °C.
In assay [5] the target is lower fibronectin-like domain of TF extracellular domain (residues 106–219; LED) (human) (UniProt P13726). The experiment in a line: co-IP; MDA-MB-231 cells (1.5 × 10^5) transfected 48 h, lysed in PhosphoSafe buffer; constructs captured with anti-FLAG-tag antibody (4 µg) at 4 °C overnight and protein A-magnetic beads, five washes with PBST; blot with anti-β1-integrin or anti-TF (HTF-1) antibody.

“combined EGF4-βTD domains of β1-integrin (residues 572–728) (from UniProt P05556-1 572-728) (domain or fragment)”: the binding result in assay [1] is on record as “binds”.

With “tissue factor (TF), endogenous, cellular (from UniProt P13726 33-295) (receptor)”, the binding entry in assay [2] is recorded as “binds”.

For the substance “lower fibronectin-like domain of TF extracellular domain (residues 106–219; LED) (from UniProt P13726-1 138-251) (domain or fragment)”, the binding entry in assay [3] and in assay [4] was “binds” each time.

Regarding “EGF4 domain of β1-integrin (residues 572–610) (from UniProt P05556-1 572-610) (domain or fragment)”, the binding result in assay [1] is “no binding”.

As for “β1-integrin (endogenous, cellular) (from UniProt P05556 21-798) (receptor)”, the binding result in assay [5] is “binds”.

(Values after paper PMC11853675.)
